This passage reports Kd results from US20240150422A1 (ONKO INNATE, published 2024).

The target in the test is T1, truncated form of the IL-12Rβ2 extracellular region (domains 1-3) (human, UniProt Q99665 24-319, limits assumed).
T1 construct: also called interleukin 12 receptor beta 2
T1 sequence: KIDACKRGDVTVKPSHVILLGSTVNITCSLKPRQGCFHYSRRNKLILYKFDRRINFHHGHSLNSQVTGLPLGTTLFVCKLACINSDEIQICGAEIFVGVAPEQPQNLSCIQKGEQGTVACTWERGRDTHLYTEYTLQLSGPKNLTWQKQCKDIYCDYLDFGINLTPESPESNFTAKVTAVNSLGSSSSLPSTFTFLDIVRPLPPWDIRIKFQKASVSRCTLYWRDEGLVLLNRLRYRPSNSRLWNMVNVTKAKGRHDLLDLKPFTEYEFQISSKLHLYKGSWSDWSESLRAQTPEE
The test can be described thus: SPR (Biacore T100, 20 C); IL-12 Fc captured on a protein A chip (245 RU), IL-12Rbeta2 (domains 1-3) as analyte; 1:1 Langmuir model.

B1: T43A (Fc fusion)
chain 1: DKTHTCPPCPAPELLGGPSVFLFPPKPKDTLMISRTPEVTCVVVDVSHEDPEVKFNWYVDGVEVHNAKTKPREEQYGSTYRVVSVLTVLHQDWLNGKEYKCKVSNKALPAPIEKTISKAKGQPREPQVYTLPPCRDELTKNQVSLWCLVKGFYPSDIAVEWESNGQPENNYKTTPPVLDSDGSFFLYSKLTVDKSRWQQGNVFSCSVMHEALHNHYTQKSLSLSPGGGGGSGGGGSGGGGSTRRNLPVATPDPGMFPCLHHSQNLLRAVSNMLQKARQTLEFYPCASEEIDHEDITKDKTSTVEACLPLELTKNESCLNSRETSFITNGSCLASRKTSFMMALCLSSIYEDLKMYQVEFKTMNAKLLMDPKRQIFLDQNMLAVIDELMQALNFNSETVPQKSSLEEPDFYKTKIKLCILLHAFRIRAVTIDRVMSYLNAS
chain 2: [human IgG1 Fc with changes not printed]GGGGSGGGGSGGGGSTRIWELKKDVYVVELDWYPDAPGEMVVLTCDTPEEDGITWTLDQSSEVLGSGKTLTIQVKEFGDAGQYTCHKGGEVLSHSLLLLHKKEDGIWSTDILKDQKEPKNKTFLRCEAKNYSGRFTCWWLTTISTDLTFSVKSSRGSSDPQGVTCGAATLSAERVRGDNKEYEYSVECQEDSACPAAEESLPIEVMVDAVHKLKYENYTSSFFIRDIIKPDPPKNLQLKPLKNSRQVEVSWEYPDTWSTPHSYFSLTFCVQVQGKSKREKKDRVFTDKTSATVICRKNASISVRAQDRYYSSSWSEWASVPCS
notes: not in the list of the first reading
Consider B1, for which the equilibrium dissociation constant (Kd) (usually the concentration at which binding is half-saturated) worked out at 20.6 nM.
